Measured values: PMC4336329 (PLoS ONE, 2015)
The campaign covered roughly 310,000 compounds. About 2,200 (0.71%) showed an effect of 50% or more. The effect is printed as a negative number. Some of the results follow.

target: human ether-à-go-go-related gene (hERG) potassium channel (human, UniProt Q12809); assay: primary screen, population patch clamp on CHO cells stably expressing hERG
Sequence (Q12809 whole entry, looked up): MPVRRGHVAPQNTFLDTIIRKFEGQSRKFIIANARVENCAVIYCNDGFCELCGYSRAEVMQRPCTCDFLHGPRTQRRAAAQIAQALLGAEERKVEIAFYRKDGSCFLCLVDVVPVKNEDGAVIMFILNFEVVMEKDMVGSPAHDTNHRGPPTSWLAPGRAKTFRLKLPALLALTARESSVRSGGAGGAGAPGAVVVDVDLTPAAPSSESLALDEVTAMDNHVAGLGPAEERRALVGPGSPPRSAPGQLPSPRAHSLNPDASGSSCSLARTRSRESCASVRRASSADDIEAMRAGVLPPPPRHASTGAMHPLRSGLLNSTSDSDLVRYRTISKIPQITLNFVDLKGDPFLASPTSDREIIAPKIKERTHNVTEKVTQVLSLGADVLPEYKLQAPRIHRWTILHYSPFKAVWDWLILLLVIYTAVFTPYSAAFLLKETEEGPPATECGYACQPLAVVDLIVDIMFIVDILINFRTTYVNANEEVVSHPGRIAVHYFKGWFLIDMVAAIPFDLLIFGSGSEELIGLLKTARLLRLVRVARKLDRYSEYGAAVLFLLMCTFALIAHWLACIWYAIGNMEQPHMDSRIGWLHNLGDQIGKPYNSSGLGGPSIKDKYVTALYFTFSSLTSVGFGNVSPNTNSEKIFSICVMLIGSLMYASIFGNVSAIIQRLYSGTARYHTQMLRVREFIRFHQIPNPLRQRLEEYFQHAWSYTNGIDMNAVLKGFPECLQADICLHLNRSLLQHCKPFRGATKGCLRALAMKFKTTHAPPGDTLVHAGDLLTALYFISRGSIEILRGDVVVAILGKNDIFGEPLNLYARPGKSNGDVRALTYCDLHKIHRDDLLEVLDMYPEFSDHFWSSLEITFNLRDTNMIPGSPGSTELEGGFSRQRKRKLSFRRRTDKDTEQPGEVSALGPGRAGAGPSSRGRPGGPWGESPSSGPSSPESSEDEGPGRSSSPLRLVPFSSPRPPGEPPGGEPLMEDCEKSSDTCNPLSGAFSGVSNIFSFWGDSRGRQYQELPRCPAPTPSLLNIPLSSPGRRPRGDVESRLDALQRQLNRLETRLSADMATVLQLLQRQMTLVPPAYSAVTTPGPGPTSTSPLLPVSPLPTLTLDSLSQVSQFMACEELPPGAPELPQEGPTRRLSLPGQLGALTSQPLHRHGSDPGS

SMILES | hERG current change (%, negative = inhibition) at 1uM [%]
COc1ccc(CCNC(=S)Nc2cccc(C)c2)cc1 | 0.639
Nc1nonc1N/N=C/c1c(O)ccc2ccccc12 | -0.296
O=S(=O)(NCc1ccc2c(c1)OCO2)c1ccc2c(c1)oc1ccccc12 | 18.5
CC(CCN1CCC(n2nccc2NC(=O)c2ccccc2Cl)CC1)c1ccccc1 (stereo not drawn) | -85.1
COc1cc2[nH]c(C(=O)N3CCc4ccccc4C3)cc2c(OC)c1OC | 13.8
Cc1ccc2oc(=O)c(/C=C(\O)c3ccccc3)nc2c1 | 5.88
O=C(COC(=O)c1ccc(Cl)s1)c1cc2ccccc2o1 | -3.6
O=C(OCC(=O)N1CCN(C(=O)c2ccco2)CC1)c1cc(-c2ccccc2)nc2ccccc12 | -7.53
COc1ccc(-n2c(C)nnc2SCC(=O)N2CCOCC2)cc1 | 14.6
COc1ccccc1-c1c(C)nn2c(N)c(-c3ccc(Cl)cc3)cnc12 | 20.6
Cc1ccc(Cl)cc1N1CCN(C(=O)c2ccc(CS(=O)Cc3ccc(Cl)cc3)o2)CC1 (stereo not drawn) | 15.3
CSc1nnc(-c2cccn(Cc3cccc(Cl)c3)c2=O)o1 | 4.48
O=C(NC1CCCCC1)N1CCCC(c2nc(-c3cccs3)no2)C1 (stereo not drawn) | 2.11
COc1ccc(-n2cc(CN[C@H]3CCCCNC3=O)c(-c3cccc(F)c3)n2)cc1 | -33
Cc1ccc(NS(=O)(=O)c2c(C)[nH]c(C)c2C(=O)N2CCCCC2)c(Br)c1 | 4.64
COC(=O)C1=C(C)N(Cc2ccco2)C(=O)N[C@@H]1c1ccco1 | 18.9
Cn1c(=O)n(CC(=O)O)c(=O)c2c1nc1n2CCCN1Cc1ccccc1 | 11.2
O=C(NCc1ccccc1)c1cc(S(=O)(=O)N2CCC3(CC2)OCCO3)ccc1F | 8.59
CC(=O)c1ccccc1NC(=O)CC1(CC(=O)O)CCCCC1 | 11.1
COCCNC(=O)C(OC(=O)c1cc2oc(C)cc2n1C)C(C)C (stereo not drawn) | 7.23
CCOC(=O)c1ccc(-c2ccc(/C=N/NC(=O)Cc3nnc(N)s3)o2)cc1 | 12.3
CNCCCOc1ccc(Cl)cc1C(C)(C)C.O=C(O)C(=O)O | 9.81

SMILES | hERG current change (%, negative = inhibition) at 1uM [%]
Cc1ccc(S(=O)(=O)NCCNC(=O)c2ccc(C)nc2)cc1 | -27.8
COc1ccc(/C=C(/NC(=O)/C=C/c2ccccc2)C(=O)NCCCCCC(=O)O)cc1 | 8.36
CCOc1ccc(OCCC(=O)OCC(=O)NC2CC2)cc1 | 6.6
CNc1nc(N)c([N+](=O)[O-])c(NC2CCCCC2)n1 | 11.9
CC(NC(=O)C(=O)N1CCOCC1)C(c1cccs1)N1CCN(c2ccccc2)CC1 (stereo not drawn) | 7.19
CC12CC3CC(C)(C1)CC(C(=O)N1CCCC1)(C3)C2 | 7.43
Cc1ccc(Cn2ccc(=O)c(OCc3ccccc3)c2C)cc1 | 8.25
COc1ccccc1/C=N/NC(=O)CNC(=O)c1ccc(S(=O)(=O)N2CCCC2)cc1 | 11.5
CCOC(=O)c1cnn(-c2ccccc2)c1-c1ccncc1 | 13
CCc1ccc(C(=O)COC(=O)c2cccc(N3C(=O)c4c(C)nc5ccccc5c4C3=O)c2)cc1 | -5
CC(OC(=O)c1ccccc1Nc1ccc(SC(F)F)cc1)C(N)=O (stereo not drawn) | 0.263
COc1ccc(CN(Cc2ccc(C(=O)O)cc2)C(=S)Nc2ccccc2C)cc1OC | 12.6
Cc1cc2ccccc2cc(C)c1=O | 11.4
CC(C)OCCCN(C)C1CCN(S(=O)(=O)c2csc(C(N)=O)c2)CC1 | 19.3
CC1=CS/C(=C(/C#N)C(=O)N2CCCCC2)N1c1ccccc1 | 13.5
Cc1cc(N2CCc3ccccc32)n2ncnc2n1 | 3.44
CCC1=[N+](C)c2cccc3cccc(c23)N1C.[I-] | 15.6
CC1CCCCN1C(=O)CSc1nc(C2CC2)nc2c1cnn2-c1ccccc1 (stereo not drawn) | 18.7
Cc1cccc(C)c1NC(=S)NN(Cc1ccccc1)c1ccccc1 | 10.3
CCCS(=O)(=O)Nc1c(C(=O)O)[nH]c2ccc(OC)cc12 | 9.84
CCOC(=O)c1c(/N=C/N(C)C)sc(C=O)c1-c1ccccc1 | 7.4
O=C(Nc1ccc(Cl)cc1)C1CC2CCCC(C1)C2=O (stereo not drawn) | -1.25

SMILES | hERG current change (%, negative = inhibition) at 1uM [%]
Nc1c(C=C2C=CC(=O)C=C2)c(=O)nc2sc(CC(=O)N3CCCCC3)nn12 | 21
CCN1CCCC1CNc1ncnc2c1[nH]c1ccc(Cl)cc12 (stereo not drawn) | -85.5
CCOc1cc(OCC)cc(C(=O)O)c1 | -3.36
COc1ccc(/C=N/n2c(N)nc(-c3ccccc3)c2-c2ccccc2)cc1 | 11.9
CCCOc1ccc(C2C(C(=O)c3ccc(C)o3)=C(O)C(=O)N2CCCn2ccnc2)cc1 (stereo not drawn) | 0.213
CN(C)CCCN(C(=O)CCS(=O)(=O)c1ccccc1)c1nc2cc3c(cc2s1)OCO3.Cl | -28.8
O=S(=O)(c1cccc(F)c1)N1CCN(C(=S)NCC2CCCO2)CC1 (stereo not drawn) | 10.9
COc1cccc(NC(=O)CN(C)C(=O)Cn2cnc3ccccc3c2=O)c1 | 6.94
Cc1cc(Oc2ccc(C(C)(C)C)cc2)nc(N2CCOCC2)n1 | 8.4
CCn1c(SCC(=O)Nc2ccc(NC(=O)c3ccco3)c(OC)c2)nc2ccccc2c1=O | 5.55
COC(=O)C(NNc1ccc(F)cc1)(NC(=O)c1ccccc1)C(F)(F)F (stereo not drawn) | 9.81
O=C(CSc1nnnn1-c1ccccc1)c1ccc(O)cc1O | 10.1
CCNC(=O)c1ccc2c(c1)C1C3CCC(C3)C1C(c1ccccc1)N2 (stereo not drawn) | 12.6
CCOc1ccc(S(=O)(=O)N2CCOCC2)cc1NC(=O)CSCc1c(C)noc1C | 2.49
O=C(c1ccccc1)c1ccc2nc(-c3ccc(NC(=O)c4ccccc4F)cc3)[nH]c2c1 | 3.36
COc1ccc(OC)c(-n2c(=S)[nH]c3cc(C(=O)NCCCN4CCCC4=O)ccc3c2=O)c1 | 12.7
CCC1=NN2C(=N)/C(=C/c3cc(C)n(-c4ccccc4)c3C)C(=O)N=C2S1 | 13.3
COc1ccc(C2COC(=O)C2=N)c(NC(=O)c2ccccc2)c1 (stereo not drawn) | -0.0052
O=C(O)c1ccccc1NS(=O)(=O)c1ccc2c3c(cccc13)C(=O)N2 | 12.2
Cc1cccc(C)c1OCC(=O)N/N=C/c1cccn1C | -0.66
COc1ccc(C(=O)OCCc2ccc(O)cc2)cc1 | 8.12
COc1cccc(CN(CC(=O)NCc2ccco2)C(=O)CNS(=O)(=O)c2ccccc2)c1 | -3.3

SMILES | hERG current change (%, negative = inhibition) at 1uM [%]
COc1ccc(NC(=O)c2cc(-c3cccs3)on2)c(OC)c1 | 15.4
CC(C)(C)[C@@H]1C=C(C(N)=O)O[C@H](OCCCCO)C1 | 8.39
Cc1ccc(-c2nc3ncccc3o2)cc1NC(=S)NC(=O)c1ccco1 | 9.78
CCNc1nc2[nH]c(=O)c3c(c2s1)OC(N)=C(C#N)C3c1ccc(C)cc1 (stereo not drawn) | 9.56
CCc1ccc(N2CC(C(=O)Nc3ccc4c(c3)OCO4)CC2=O)cc1 (stereo not drawn) | 20.1
CCN1CCN(Cc2cc(OC)c3c(c2)OCO3)CC1 | 10.4
CC(C)(C)NC(=O)NC(=O)CN1CCCc2ccccc21 | 17.6
CC(C)(O)C#Cc1ccc(C(=O)NCc2ccccc2F)cc1 | 4.67
Cn1cccc1C(=O)OCC(=O)Nc1ccc2c(c1)CCC2 | 9.67
Cc1cccc(Nc2nc(-c3cccs3)cs2)n1 | 15.6
COc1ccc(C2C3=C(CCCC3=O)Nc3nc(-c4cc(OC)c(OC)c(OC)c4)nn32)cc1OC (stereo not drawn) | 1.65
COc1ccc(S(=O)(=O)N2CCOCC2)cc1NC(=O)c1cccc2c(=O)c(C)c(-c3ccccc3)oc12 | -6.09
CCOC(=O)N1CCN(C(=O)CS(=O)(=O)c2cn(Cc3ccccc3Cl)c3ccccc23)CC1 | 5.52
COc1ccc(-c2cn3cccc(C)c3n2)cc1F | -24.9
O=C(Nc1nnc(Cc2ccccc2)s1)C1CCN(C(=O)c2ccco2)CC1 | -7.73
CCOc1ccc(C(c2c(O)nc(SC)[nH]c2=O)c2c(O)nc(SC)[nH]c2=O)cc1 | 20.5
Cc1ccc(C(c2sc3nc(C)nn3c2O)N2CCN(c3ccc(F)cc3)CC2)cc1 (stereo not drawn) | -10.1
CCCCN(C)C(=O)c1cc2c(s1)-c1ccccc1S(=O)(=O)C2 | -6.69
O=C(COc1cccc2ccccc12)NNC(=O)CSCCO | 3.84
CCCCCCNc1c([N+](=O)[O-])cc(C)cc1[N+](=O)[O-] | 1.7
CC(=O)N1CCN(C(=O)CNc2cc(C(F)(F)F)ccc2OCC(F)(F)F)CC1 | 6.04
